From publication PMC4336329 (PLoS ONE, 2015)
Out of some 310,000 compounds screened, about 2,200 (0.71%) showed an effect of 50% or more. The effect is printed as a negative number. The list shows a part of the results.

target: human ether-à-go-go-related gene (hERG) potassium channel (human, UniProt Q12809); experiment: primary screen, population patch clamp on CHO cells stably expressing hERG
Sequence (Q12809 whole entry, looked up): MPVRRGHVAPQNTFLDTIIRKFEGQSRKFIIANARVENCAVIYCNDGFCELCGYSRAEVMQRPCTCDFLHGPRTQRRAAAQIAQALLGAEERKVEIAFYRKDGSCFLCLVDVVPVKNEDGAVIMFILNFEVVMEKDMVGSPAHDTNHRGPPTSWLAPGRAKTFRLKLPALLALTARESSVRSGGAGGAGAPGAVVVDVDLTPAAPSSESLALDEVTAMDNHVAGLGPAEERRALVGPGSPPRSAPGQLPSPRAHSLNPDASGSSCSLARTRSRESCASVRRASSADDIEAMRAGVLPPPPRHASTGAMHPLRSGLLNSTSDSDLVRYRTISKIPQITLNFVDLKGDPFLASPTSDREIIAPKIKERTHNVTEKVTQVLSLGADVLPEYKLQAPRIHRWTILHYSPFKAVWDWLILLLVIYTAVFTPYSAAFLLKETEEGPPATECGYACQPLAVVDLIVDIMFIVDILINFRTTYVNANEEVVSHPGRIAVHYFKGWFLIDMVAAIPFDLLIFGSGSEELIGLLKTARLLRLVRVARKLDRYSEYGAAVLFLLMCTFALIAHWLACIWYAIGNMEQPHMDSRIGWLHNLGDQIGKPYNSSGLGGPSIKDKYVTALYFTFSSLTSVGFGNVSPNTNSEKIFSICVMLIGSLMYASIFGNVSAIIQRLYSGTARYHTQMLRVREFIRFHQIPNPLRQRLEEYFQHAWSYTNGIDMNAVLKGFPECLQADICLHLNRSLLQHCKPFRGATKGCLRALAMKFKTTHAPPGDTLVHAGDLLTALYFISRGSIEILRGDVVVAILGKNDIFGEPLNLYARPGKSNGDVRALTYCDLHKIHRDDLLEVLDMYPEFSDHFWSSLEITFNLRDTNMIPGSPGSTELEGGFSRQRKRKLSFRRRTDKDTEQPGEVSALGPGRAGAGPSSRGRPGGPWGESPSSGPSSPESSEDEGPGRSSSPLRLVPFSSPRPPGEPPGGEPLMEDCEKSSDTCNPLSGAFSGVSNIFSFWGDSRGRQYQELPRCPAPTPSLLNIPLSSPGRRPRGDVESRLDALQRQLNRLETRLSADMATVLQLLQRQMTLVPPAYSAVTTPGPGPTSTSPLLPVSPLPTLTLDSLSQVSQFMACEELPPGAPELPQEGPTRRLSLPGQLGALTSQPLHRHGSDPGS

Compound | hERG current change (%, negative = inhibition) at 1uM
CC(OC(=O)Cc1n[nH]c(=O)c2ccccc12)C(=O)Nc1ccc(F)cc1 (centres unmarked) | -2.68%
Clc1cccc(NCc2ccccc2)n1 | -9.27%
COc1cc(/C=C/C(=O)Nc2ccncc2)cc(OC)c1OC | 14%
CCCCCN(CCCCC)C(=O)C(CCC(=O)[O-])NC(=O)c1ccc(Cl)c(Cl)c1.[Na+] (centres unmarked) | 6.63%
COc1ccc(NC(=O)Nc2ccc(Br)c(C)c2)cc1 | 22%
COc1ccc(C(=O)NCCSc2ccccc2)cc1 | 12.4%
CCN(CC)S(=O)(=O)c1cccc(NC(=O)COC(=O)c2ccc(Br)o2)c1 | 6.72%
COc1cccc(Cn2c(OCC3CCCO3)nc3c2c(=O)n(C)c(=O)n3C)c1 (centres unmarked) | 0.0483%
Cc1ccc(-c2nc3ccccc3c(=O)n2-c2ccc(O)cc2)cc1 | 10.4%
CC(C)N(C=O)C1(C(=O)NC2CCCCC2)CCCCC1 | 1.56%
CC(=O)Nc1ccc(S(=O)(=O)N(C)CC(=O)OC(C)C(=O)NC2CCCC2)cc1 (centres unmarked) | 10%
CC1CCN(S(=O)(=O)c2ccc(S(=O)(=O)NCc3ccco3)cc2)CC1 | 5.3%
Cc1ccccc1CNC(=O)c1ccc2nc(N3CCOCC3)sc2c1 | 6.49%
CN(C)CCCNc1cc(-c2ccccc2)nc2cc(-c3cccc(F)c3)nn12 | 5%
c1ccc(-c2nc(NCc3ccco3)c3ccccc3n2)nc1 | -19.6%
CCOC(=O)C(C(C)C)C(N)Cc1ccc(F)cc1 (centres unmarked) | 4.84%
CCC(OC(=O)c1ccco1)C(=O)NCc1ccco1 (centres unmarked) | 11.6%
O=C(CCSc1ccc(Cl)cc1)c1cccs1 | 1.85%
CN(CC(=O)Nc1ccc(F)cc1)C(=O)COC(=O)c1ccc(-c2ccccc2)cc1 | 8%
Nc1nc(Nc2cccc(F)c2)nc(NCCO)c1[N+](=O)[O-] | 10.8%
Cl.O=C(NCC(c1ccc(F)cc1)N1CCOCC1)c1ccc(Br)o1 (centres unmarked) | 5.42%
Cc1csc(=N)n1-c1ccc(Cl)cc1 | 4.16%
COc1ccc(CNC(=O)C23CN(Cc4ccccc4)CC2C(c2ccc([N+](=O)[O-])cc2)=NO3)cc1 (centres unmarked) | -2.91%

Compound | hERG current change (%, negative = inhibition) at 1uM
CCOC(=O)c1c(C)c(C(=O)NCCN2CCOCC2)c(C)n1CC | 4.39%
O=C(COn1nnc2ccccc21)N1CCN(Cc2ccccc2)CC1 | 2.38%
CCCN(CCC)CCCNC(=O)CNC(=O)c1nn(-c2ccc(OC)cc2)c(=O)c2ccccc12 | -4.95%
COc1cc(-c2nnc(SCc3cccnc3)n2C)cc(OC)c1O | 5.15%
O=C(C(Cl)Cl)N1c2ccccc2OCC1c1ccccc1 (centres unmarked) | 4.21%
COc1ccccc1CN1CC(C(=O)NCc2ccc(N3CCCC3=O)cc2)CCC1=O (centres unmarked) | 19.4%
COc1ccc(CNC(=O)C2CCCN(S(=O)(=O)N3CCC(C)CC3)C2)c(OC)c1 (centres unmarked) | 36.2%
CCCCn1c(SCC(=O)NCc2ccco2)nnc1-c1ccoc1C | 9.53%
O=C(CC12CC3CC(CC(C3)C1)C2)N1CCN(S(=O)(=O)c2cccs2)CC1 | 19.3%
COc1ccc(C2=NCCn3nc4cc([N+](=O)[O-])ccc4c32)cc1 | 5.39%
CCN(CC)CCCn1c(SCC(=O)Nc2cccc(F)c2)nnc1-c1ccoc1C | -63%
O=C(Nc1ccccc1C(F)(F)F)c1cc(S(=O)(=O)N2CCC3(CC2)OCCO3)ccc1F | -7.86%
Cc1cc(SCC2=NNC(=O)C2)c(Cl)cc1Cl | 13.5%
Cc1ccc2c(c1)CC1(CN2C)C(=O)NC(=O)N(c2cc(C)ccc2C)C1=O (centres unmarked) | -0.259%
CCOc1cc(CNn2cn[nH]c2=S)cc(Cl)c1OCc1ccccc1F | 11.1%
OCC[C@H]1C[C@@H](O)[C@H](O)[C@@]2(CCc3ccccc3O2)O1 | 12.2%
C/C(=N\Nc1ncc(Cl)cc1Cl)c1ccc(OC(F)F)cc1 | -8.03%
O=C(Nc1ccc(F)cc1)C1CC2CCC1C2 (centres unmarked) | 12.7%
O=C(CNC(=O)c1ccccc1F)NC1CCN(Cc2ccccc2)CC1 | 13.4%
CC(=O)c1ccc([C@@H]2C[C@]34CN(Cc5cccc(C(F)(F)F)c5)S(=O)(=O)[C@H]3C[C@H]2O4)cc1 | 2.62%
CCOc1ccccc1NC(=O)CCCc1nc2ccccc2c(=O)[nH]1 | 7.17%
CC1CCN(c2nc3ccccc3nc2C(C#N)C(=O)NC2CCCCC2)CC1 (centres unmarked) | 7.85%
O=C(Nc1ccccc1)/C(=C\c1ccco1)NC(=O)c1ccco1 | 4.63%

Compound | hERG current change (%, negative = inhibition) at 1uM
CCCOc1ccc(C(=O)NNC(=S)NC(=O)CC)cc1 | 9.23%
Cc1ccc(-n2c(-c3cc(C)n(C)n3)n[nH]c2=S)cc1 | 20.3%
NC(=O)CSc1cn(Cc2ccccc2)c2ccccc12 | 10.2%
O=C(O)c1cc(C(=O)O)cc(N2C(=O)CSC2=S)c1 | 12.2%
COC1(OC)C=CC(=O)C=C1NC(=O)c1ccccc1OC(C)=O | 4.68%
CC1CCc2nc(NC(=O)CCSc3ccccc3)sc2C1 (centres unmarked) | 4.84%
C/C(=N\NC(=O)c1cc(C)[nH]n1)c1ccc(-c2ccccc2)cc1 | 13.7%
COc1cc(C(=O)NCC(=O)OCC(=O)c2ccc[nH]2)cc(OC)c1OC | 15.7%
Cc1cccc(-n2nnc3c(=O)n(Cc4ccccn4)cnc32)c1 | 10.1%
COc1ccc(NC(=O)CN(c2ccc(C)cc2)S(=O)(=O)c2c(C)nn(C)c2C)cc1OC | 13.5%
Cc1nn(CC(=O)NC2CCCC2)c(C)c1[N+](=O)[O-] | 11%
COc1ccc(CS(=O)(=O)/C(Cl)=C(/Cl)C(=O)Nc2ccc(OC)nc2)cc1 | 12.5%
O=C(NCC1CCCO1)[C@@H]1CSC2c3ccccc3C(=O)N21 (some centres unmarked) | 5.34%
CN(C)c1ccc(CN(C(=O)c2cc3ccccc3oc2=O)C2CCS(=O)(=O)C2)cc1 (centres unmarked) | 8.09%
Cn1c(SCC(=O)O)nnc1-c1ccc2ncccc2c1 | 10.7%
CCN(CC)S(=O)(=O)c1ccc2c(c1)nc(CCC(=O)OCC(=O)Nc1cc(OC)cc(OC)c1)n2C | -12.7%
Cl.c1ccc2c(c1)nc(N1CCCCC1)c1ccccc12 | 5.96%
CC/C(=N/NC(=O)c1ccc(Br)cc1)c1ccc(OCCN2CCOCC2)cc1 | -3.84%
COCCn1c(SCC(=O)Nc2ccc(NC(C)=O)cc2)nc2ccccc2c1=O | 13.7%
Cc1cc(NC(=O)CCCC(=O)N(c2ccccc2)C(C(=O)NC2CCCCC2)c2cccs2)no1 (centres unmarked) | -7.59%
CCNC(=O)COC(=O)COc1ccc(Cl)cc1C | 9.46%
c1ccc2c(c1)nc1n2CC2CON(C3CCCCC3)C12 (centres unmarked) | 3.37%
CC(=O)NCc1c(Cl)cccc1-n1cccc1 | 15.4%

Compound | hERG current change (%, negative = inhibition) at 1uM
C/C(=N\Nc1nc2c(s1)CCCC2)c1ccc(Cl)cc1.Cl | 6.26%
CCN(Cc1cc2ccccc2[nH]c1=O)C(=O)c1cccnc1 | 4.01%
COc1cccc(NC(C(=O)Nc2cccc(C(C)=O)c2)c2ccccc2)c1 (centres unmarked) | 9.07%
Cc1ccc(S(=O)(=O)Nc2cccnc2)cc1C | 9.89%
COc1cccc(NC(=O)CN(C)C(=O)CNC(=O)c2ccc(Oc3ccccc3)cc2)c1 | 1.28%
COc1cc([N+](=O)[O-])ccc1NC(=O)COC(=O)c1ccc(NC(N)=O)cc1 | 11.2%
Cc1oc(-c2ccccc2Cl)nc1CS(=O)CC(=O)N1CCN(c2ccccc2)CC1 (centres unmarked) | 7.95%
CC1CCCCN1C(=O)CSc1nnc(-c2ccccc2F)o1 (centres unmarked) | 11.1%
COc1ccc(C2C(C#N)=C(N)OC3=C2C(=O)CC(C)(C)C3)cc1OC (centres unmarked) | 7.6%
CC(C)N(CC#CCC1(O)c2ccccc2-c2ccccc21)CCO | 8.43%
CC(=O)C(/C=N/c1ncc(C(F)(F)F)cc1Cl)=C(\C)O | 8.52%
CCCCc1nnc(NC(=O)CN2C(=O)c3ccccc3C2=O)s1 | -2.77%
O=C(NCc1cccnc1)C1c2ccccc2C(=O)N1C1CCCCCCC1 (centres unmarked) | 6.62%
CCCN1C(=O)C(Cc2nc3ccccc3c(=O)n2-c2ccccc2)c2cc(C)ccc21 (centres unmarked) | 1.98%
Cc1ccccc1N=C1Nc2ccccc2CS1 | 21.2%
Cc1ccc(CSc2ccc(-c3ccc4c(c3)OCO4)nn2)cc1 | 12.7%
CCOC(=O)c1sc(SC)nc1N | 6.66%
O=C(Nc1ccccc1C(=O)Nc1ccccc1)c1ccccc1Br | 12.3%
COc1ccc(C(CNC(=O)c2c(C)nn(Cc3ccccc3)c2Cl)N2CCOCC2)cc1 (centres unmarked) | 7.13%
CC(NC(=O)OC(C)(C)C)C(=O)Oc1ccc2ccc(=O)oc2c1 (centres unmarked) | 12.8%
